The other results are listed elsewhere or left out.
T1: UNK ZnF1-3 (human, UniProt Q9C0B0 31-174)
T1 sequence: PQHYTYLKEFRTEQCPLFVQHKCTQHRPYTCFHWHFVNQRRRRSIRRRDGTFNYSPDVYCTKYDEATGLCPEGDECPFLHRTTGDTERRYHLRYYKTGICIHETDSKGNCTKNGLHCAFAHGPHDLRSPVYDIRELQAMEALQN

B1: 22790243_22790363_661_ncRNA_ENSMUSG00000026784_ENSMUST00000139472|mouse|control|control (ssRNA)
RNA: GGGAGUUCUACAGUCCGACGAUCAGAAAAUCCUUCUGCUUUUCUAGGUUCAGUGGCUAGUCCUAUUCAUUGUAGCACAAGAGAGGGAAUAAAAAGGUCUGAUAGCAAAAAGACAAAAACAAACAACAACAACAAAACAGGCUGCAACAGAGGAUUGAGCAUCA
B2: chr1:37488339:37488340:+_ENSMUSG00000026111_ENSMUST00000027285|mus_mus|FALSE|FALSE (ssRNA)
RNA: GGGAGUUCUACAGUCCGACGAUCGGCAGGGUCAUCUCUGGCCCACUGGUCCUUUGUUUGCUUCCGGUAGUGAAAGUUUCUAUAAACCCUCUGAGGAGAGGUAAACAGGUAGAGCAUCUGCCAUGCAGCAAACUCAAAGUCCAUCAACAGAGGAUUGAGCAUCA
B3: chr17:1265283:1265284:-_ENSG00000108953_ENST00000571732|hu_mus|FALSE|FALSE (ssRNA)
RNA: GGGAGUUCUACAGUCCGACGAUCGUUAGCUGCUGGAAUGAGGUGUUUGUCCAGUACAUCCAGAAUGUCACAACAGAUUAACUUGAGCUCAGUUUCAACCAUUUGCCGGUACUCCCGAAUCAUCUUUAAUUUGUCCUCUCCUCCCAACAGAGGAUUGAGCAUCA
B4: chr5:40767622:40767623:-_ENSG00000132356_ENST00000397128|hu_hu|motif|central (ssRNA)
RNA: GGGAGUUCUACAGUCCGACGAUCAUCUUUGAUUGUGGCCCUCUUCAUGGGAUCCACCUGCAGCAUAUGUUUCAAAAGGCGGAUCACAGAAGGAUUUAAAUAUUGAGGGGUAUAGAAGAUCCCAUCACAUAUCUUCUUAAAAAGCAACAGAGGAUUGAGCAUCA
B5: chr6:114281168:114281169:-_ENSG00000196591_ENST00000368632|hu_hu|hu_hu_hu_mus_True|8_38 (ssRNA)
RNA: GGGAGUUCUACAGUCCGACGAUCUUCCAUUUUUCGGUAUAAACCAUAAUUUAGCAGCAAGUUAUGAGUCAUCCGGAUUCUAUGAGGCUUCAUGGGAUGACCCUGUCCAUAAUAAUAAUUGCCAAUAUCACAGAUUCAGUAGUACAACAGAGGAUUGAGCAUCA
B6: chr16:29654537:29654538:+_ENSMUSG00000038084_ENSMUST00000160597|mus_mus|FALSE|FALSE (ssRNA)
RNA: GGGAGUUCUACAGUCCGACGAUCUUACAUCGAGUGUAAGGUUUAAAAAUAAUACAAAGUCCAUUCACAGUGCACAGUGACGACAUGGUUAAGUUUUAAAUAUUUAGAUAUCAAAUAGCCAUGAUCGUUUAGAAGGUAAGCAUACAACAGAGGAUUGAGCAUCA
B7: chr3:133011071:133011072:+_ENSMUSG00000028013_ENSMUST00000029644|mus_mus|FALSE|FALSE (ssRNA)
RNA: GGGAGUUCUACAGUCCGACGAUCCAAAGUCCCAAGGAUCUUCACAUGGACCACGUCUCCACGGGAAAGAACCUUUGAGCCUAUUUCACAGACGUCAAUGGGAUCAUUAUCCCCACAGCAGUCGGUGCUCUUAUCUCUUAGGUGCAACAGAGGAUUGAGCAUCA
B8: chr20:33097842:33097843:+_ENSG00000078747_ENST00000374864|hu_mus|FALSE|FALSE (ssRNA)
RNA: GGGAGUUCUACAGUCCGACGAUCUAAAAAUAUUAAAUAGCCAAGCCCUAUAGAACUAGGGCCAGGACUACUUCAAAUAUAACUUCUGUAUUUUAAAAAUAUAGGGCAGAAAGCCUUUUGGAUGAUAUUUAUACAUUUUCACAUCAACAGAGGAUUGAGCAUCA
B9: chr11:50626376:50626377:-_ENSMUSG00000044807_ENSMUST00000109135|mus_hu|motif|central (ssRNA)
RNA: GGGAGUUCUACAGUCCGACGAUCAAAUCCUUCGUUAGUACAAUGAAAGGCUAUAAUUAAACUAAAAUCUCUCCUGGCUCGGAUGAGCUACCAGACAUGCAGCCUGAGAUUCUGCCAAAUACAUCCCUUCUGCAACAGAUAACACAACAGAGGAUUGAGCAUCA
B10: chr7:141438946:141438947:+_ENSG00000106028_ENST00000265304|hu_mus|hu_hu_hu_mus_True|1_38 (ssRNA)
RNA: GGGAGUUCUACAGUCCGACGAUCGACGAAAUACCUGUAACACAGGUCUUCGAAACAUGGCUUCUGUUUUUCUUACAACCUAAUCUUUAGGCUUUUCCUGACGAUCUGAAAGAAAAGAGAAAAAUGAUAAAUCAAGAACUUCCGCAACAGAGGAUUGAGCAUCA
B11: chr3:179287964:179287965:+_ENSG00000136518_ENST00000429709|hu_hu|hu_hu_hu_mus_True|1_48 (ssRNA)
RNA: GGGAGUUCUACAGUCCGACGAUCCUUGAGUGGUGAGAUGGCCUCCAUGUUCUCCCUGGGCACGCGGAGGGCAUUGGUGUCUAUGUAGUAGGUGGGACCGCCCUGCUUGCCUUUGUCACCAUCAAUCUCCAUCAUUGUGCUUCCCAACAGAGGAUUGAGCAUCA
B12: chr4:76721835:76721836:+_ENSG00000138768_ENST00000264904|hu_mus|hu_hu_hu_mus_True|1_78 (ssRNA)
RNA: GGGAGUUCUACAGUCCGACGAUCGUUUGGCUGGGGUUUCUGAGACGCUCUGGAAUAAACUCAUGUUUUGCUAAUAAAUCCUAGUUUCUCUAUGAAAUUCUCUUUGCCAAUCCUCUUCUCUAUUAGUUGCUUUAGUUCUCUUUCCAACAGAGGAUUGAGCAUCA
B13: chr2:153583694:153583695:+_ENSMUSG00000027479_ENSMUST00000028981|perfect_dup|FALSE|FALSE (ssRNA)
RNA: GGGAGUUCUACAGUCCGACGAUCAAAAAACUUCUUGAACCAUUGAACAAAUUCAAAAUUGUCCUGAAAUUUUCCUUUUACUAAUUUAUCCACAGGAAUUAUUUUGUCAACGCCCAUCCUCUUGAAGCCUGCUUGUAGUAUUUUCAACAGAGGAUUGAGCAUCA
B14: 97026774_97028877_2254_3pUTR_ENSMUSG00000001440_ENSMUST00000001479|mouse|control|control (ssRNA)
RNA: GGGAGUUCUACAGUCCGACGAUCAAGCCAACAGCUGCCAAACAUACCUGGUACUCAGCAUAAUUUUUCAGUCCAAUGCCCAGGAAUGGUUUAAAGGCCUCCAUGUACUUGAGGAAUUCACCACCCAACACUUCCACCAGUGUGCAACAGAGGAUUGAGCAUCA

molecular target: T1, UNK ZnF1-3; experiment: nsRBNS (natural sequence RNA bind-n-seq); RBNS binding buffer (assumed for nsRBNS): 25 mM Tris pH 7.5, 150 mM KCl, 3 mM MgCl2, 0.01% Triton X-100, 500 ug/ml BSA, 20 U/ml SUPERase-In, 4 C; UNK is unkempt and MSI1 is Musashi-1; names of the RNAs are library labels; protein concentration not given here; high values mean tight binding

| Binder | binding signal [enrichment R] |
| --- | --- |
| B1 | 2.17 |
| B2 | 0.929 |
| B3 | 1.35 |
| B4 | 0.981 |
| B5 | 0.886 |
| B6 | 0.995 |
| B7 | 0.607 |
| B8 | 0.861 |
| B9 | 1.25 |
| B10 | 0.416 |
| B11 | 0.66 |
| B12 | 0.485 |
| B13 | 0.847 |
| B14 | 1.05 |

Reference: publication PMC12136788
